Test results taken from PubChem BioAssay AID1508624 (National Center for Advancing Translational Sciences (NCATS), 2021).
The whole screen tested about 48,000 compounds, of which about 120 (0.25%) were called active. About 4% were inconclusive and are not listed. Calls follow the shape of the dose curve; as a rule, active = well fitted activation curve with a large enough effect; inconclusive = small, poorly fitted or top-dose-only effect, or another doubt; inactive = no such curve, though single readings can be large or run the other way. The list shows a part of the results.

Assay: Primary qHTS for Identification of Small Molecule Activators of Huntingtin-Antisense Promoter Activity; also: nearly all actives have a fitted effect of over 55% in size
Conditions: HEK293 HTT-AS promoter firefly luciferase reporter (activity 0% = vehicle and -100% = no light), 24 h; series mostly up to 57.5 µM; activity change, positive = activation: at the top concentration
Method in brief: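 Quantitative HTS used concentration series of up to 57.5 uM final on HEK293 luciferase reporter cells, 24 h at 37 degrees C. Readout was Dual-Glo firefly luminescence.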

Activity change, positive = activation, inactive:
COc1ccc(OC)c(CNS(=O)(=O)c2ccc3c(c2)oc(=O)n3C)c1 -17.2%
Cc1cccc2nc(Cn3c(=O)n(-c4ccc(Cl)cc4)c(=O)c4c5c(sc43)CCC5)cc(=O)n12 -12.7%
CCOc1ccc(C(=O)Nc2cccc(C(=O)OCc3cc(=O)n4cc(C)sc4n3)c2)cc1 -29.3%
COc1ccc(S(=O)(=O)N(CC(=O)N2CCc3ccccc3C2)c2ccc(C)cc2)cc1 -20.7%
COc1ccc(N2C(=O)CS(=O)(=O)C23C(=O)N(Cc2ccccc2F)c2ccccc23)cc1Cl (stereo unspecified) -25.3%
Cc1nn(C(C)C(=O)N2CCN(c3ccc(F)cc3)CC2)c(=O)c2c1sc1ccccc12 (stereo unspecified) -11.4%
CCn1cc(C(=O)NCCc2ccccc2)c(=O)c2cc(S(=O)(=O)N3CCCCCC3)ccc21 -32.4%
COc1ccc(Br)cc1CNC(=O)c1cc(=O)[nH]c2ccc(S(=O)(=O)N3CCCCC3C)cc12 (stereo unspecified) -29.8%
COc1ccccc1CNC(=O)CSc1nc(-c2ccc(OC)c(OC)c2)cc(C(F)(F)F)n1 -18.3%
CCOc1ccc(CCNC(=O)c2ccc3c(c2)N(Cc2ccc(F)cc2)CCS3)cc1 -5.37%
COC(=O)c1sccc1S(=O)(=O)N(CC(=O)Nc1cc(C)ccc1C)c1ccc(C)c(C)c1 -25.7%
Cc1ccc(N2CC(NC(=O)c3ccc(S(=O)(=O)N(C)C)cc3)CC2=O)cc1C (stereo unspecified) -14.9%
CCC(C)NC(=O)c1ccc2c(c1)sc1nc(-c3ccc(OC)cc3)cn12 (stereo unspecified) 14.6%
O=C(CSc1nc2c([nH]c3ccccc32)c(=O)n1-c1cccc(Cl)c1)N1CCCC1 -10.8%
O=C(Cn1cc(S(=O)(=O)Cc2cccc(Cl)c2)c2ccccc21)Nc1ccccc1C(F)(F)F -13.3%
Cc1c(C)n(Cc2ccccc2)c2ccc(C(=O)NCC(C)c3ccccc3)cc12 (stereo unspecified) -17.3%
Cc1ccc(N2CCN(S(=O)(=O)c3nnc(NC(=O)c4ccccc4)s3)CC2)cc1 -3.99%
COc1ccc(N2CCN(C(=O)c3cc4c(=O)oc5ccc(C)cc5c4s3)CC2)cc1 -11.2%
CCOc1ccc(CCNC(=O)c2ccc(-n3c(C)cc4c3CCCC4)cc2)cc1OCC -4.86%
CCOC(=O)CNC(=O)c1cc2c(=O)oc3ccccc3c2s1 2.71%
CCOc1ccc(N2CC(NC(=O)c3ccc4c(c3)OCO4)CC2=O)cc1 (stereo unspecified) -10.5%
CCCCNc1nc2c(S(=O)(=O)c3ccc(C)cc3)nnn2c2ccsc12 -20.1%
CCOCCc1nnc(NC(=O)C(=O)c2cc(C)n(-c3ccc(C)c(C)c3)c2C)s1 5.21%
O=C(Cn1cnc2nc3c(cc2c1=O)CCCC3)Nc1ccc(F)cc1Cl -3.48%
O=C(Nc1ccccc1C(=O)OCc1cc(=O)n2nc(C3CC3)sc2n1)c1ccc(Cl)cc1 33.7%
Cc1ccc(C)c(N2CCN(c3nc4ccc(C)cc4nc3-n3nc(C)cc3C)CC2)c1 -4.82%
Cc1cc(C)n(CCC(=O)Nc2ccc(Cl)cc2)n1 2.87%
Cc1ccc(NC(=O)c2cccc3c(=O)c4c([nH]c23)CCCC4)c(C)c1 -30.6%
CCOc1ccc(NC(=O)Nc2nnc(N3CCCCC3C)s2)cc1 (stereo unspecified) -12.3%
CCOC(=O)c1sc2ccccc2c1S(=O)(=O)Nc1ccc(OC)c(Cl)c1 -34.5%
Cc1ccc(NC(=O)Nc2nnc(SCC(=O)N(C(C)C)C(C)C)s2)cc1 -36.5%
COc1cccc(CNC(=O)c2c(C)nn(-c3ccc(F)cc3)c2-n2cccc2)c1 -25.4%
CCc1ccc2oc(-c3ccc(C)c(NC(=O)c4cc([N+](=O)[O-])ccc4N4CCOCC4)c3)nc2c1 -4.93%
CCCCc1ccc(-n2nc3ccc(NC(=O)c4cc5ccccc5o4)cc3n2)cc1 -29.6%
COc1ccc(C(=O)NCCSc2c[nH]c3ccccc23)cc1OC -6.06%
Clc1ccc(CSc2ccc(-c3cccs3)nn2)cc1 13%
CCC(CC)C(=O)N1c2ccccc2C(C)(c2ccccc2)CC1(C)C (stereo unspecified) -8.59%
CSc1ncc(C(=O)Nc2cc(C)cc(C)c2)c(-c2ccccc2)n1 -23.5%
COc1ccc(-n2c(=O)c3c4c(sc3n(Cc3ccc(F)cc3)c2=O)CN(C(C)=O)CC4)c(OC)c1 -31.8%
CC(=O)N1CCc2c(sc3c2c(=O)n(Cc2ccccc2)c(=O)n3Cc2ccc(Cl)cc2)C1 -7.14%
Cc1cc(C)c(Cn2c(=O)n(CCC(=O)NCCc3ccccc3)c(=O)c3ccccc32)c(C)c1 -6.98%
COc1ccc(OC)c(CCNC(=O)c2c(C)oc3ncn(CC(C)C)c(=O)c23)c1 -8.42%
CN1CCN(C(CNC(=O)c2ccc(F)cc2)c2ccc3c(c2)OCO3)CC1 (stereo unspecified) -2.36%
CCOCCCn1c(SCC(=O)Nc2ccccc2CC)nc2ccccc2c1=O -7.89%
CCOC(=O)Cn1c(=O)oc2cc(S(=O)(=O)N3CCN(c4cccc(Cl)c4)CC3)ccc21 -12.4%
O=C(O)c1sc(Nc2ccccc2)nc1-c1ccccc1 -1.59%
Nc1ccc(C(=O)N2CC3CC(CN(Cc4ccccc4)C3)C2)cc1 1.74%
COc1ccc(C(=O)c2ccccc2O)c(O)c1 8.74%
CCC(=O)N1CCc2cc(S(=O)(=O)NC(Cc3ccccc3)C(=O)NCc3ccccc3)ccc21 (stereo unspecified) 3.38%
Cc1ccc(OCC(=O)Nc2ccc(OCc3cc(=O)n4ccsc4n3)cc2)cc1C 23%
CCN(C(=O)CN1C(=O)c2ccccc2Sc2ccc(C(=O)OC)cc21)c1cccc(C)c1 -8.16%
CCCCNc1nc2c(S(=O)(=O)c3ccc(Br)cc3)nnn2c2ccsc12 -10.3%
Cc1ccc(NC(=O)Cn2c(=O)n(Cc3nc(-c4ccccc4)no3)c(=O)c3ccccc32)c(C)c1 -9.2%
Cc1ccc(Nc2c(-c3ccccn3)nc3ccc(Br)cn23)cc1 5.21%
CCC(=O)N1CCc2cc(Br)cc(S(=O)(=O)N3CCCC(C(=O)Nc4ccc(C)c(F)c4)C3)c21 (stereo unspecified) -34.6%
Cc1ccc(C(=O)N(Cc2ccc(N(C)C)cc2)CC2CCCO2)cc1 (stereo unspecified) -2.72%
Cc1nn(C(C)C(=O)NCc2ccc(OC(C)C)cc2)c(=O)c2c1sc1ccccc12 (stereo unspecified) -23%
CC(C)(C)NCC(O)COc1cccc2c1C[C@H](O)[C@H](O)C2 (stereo partly specified) -2.03%
Cc1ccc2ccc3cc(C(=O)N4CCN(c5ccccc5F)CC4)nc3c2[nH]1 -18.5%
CCCCNC(=O)CCC(=O)NNc1nc2ccccc2c2nc(C)nn12 -2.29%
CC(CCc1ccccc1)NC(=O)CSc1n[nH]c(-c2ccccc2)n1 (stereo unspecified) -34.7%
